Consider 84 variants from the RNAGym collection of RNA variant scans (doi:10.1073/pnas.2313332121).

Variants at the background level are over-represented here. Some results are limits rather than exact numbers.

First the molecules themselves.
B1: TPR 5TU (parent)
chain: GGAUCUUCUCGAUCUAACAAAAAAGACAAAUCUGCCACAAAGCUUGAGAGCAUCUUCGGAUGCAGAGGCGGCAGCCUUCGGUGGCGCGAUAGCGCCAACGUUCUCAACUAUGACACGCAAAACGCGUGCUCCGUUGAAUGGAGUUUAUCAUG

Variants of B1 are the subject of this data set. In words: polymerase ribozyme fitness, log enrichment relative to wild type (log ratio); higher = more active; in vitro selection for triplet polymerase activity. Summed up:
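Both subunits of a heterodimeric triplet polymerase ribozyme were given their own mutant library, built by PCR and transcribed. Each library was annealed with a biotinylated primer, the partner subunit and triplets, incubated frozen at −7 °C, and its extended constructs gel-excised, captured on streptavidin beads and amplified by RT-PCR, all in one round done in triplicate. Fitness is the logarithm of genotype enrichment relative to wild-type enrichment, with replicates averaged by inverse-variance weighting. That logarithm is base 2, and Illumina-sequenced genotypes needed ≥10 input reads and ≥1 read per output.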
For C27G G58A C93A C95G, the “polymerase ribozyme fitness (log ratio)” value is ≤ -4.2. As for C27G G34C C43U C103A G143U, the figure is ≤ -4.2; as for C27U A29U G50A C76U G92A C114U, ≤ -4.2; as for C27G C96U A106G, -4.

For the variant A28C C54U G94C A97G, the “polymerase ribozyme fitness (log ratio)” value is ≤ -4.2.

Regarding A28U C38A A52U C85A C114A, the “polymerase ribozyme fitness (log ratio)” value is ≤ -4.2. Then A28U A29U A52G C76U G83C C93G C132U, with ≤ -4.2; and C27G C79A G80A C93G C103G U127C, with ≤ -4.2; and A28C A30U A60C C75A C76U C93A C95G, with ≤ -4.2. In the case of A28U G48C C76U G83A G94A A106G, the “polymerase ribozyme fitness (log ratio)” value was ≤ -4.2.

Turning to C27U A28G C116U U148A, the “polymerase ribozyme fitness (log ratio)” value was ≤ -4.2.

With A28U G48U A49G C54A U55A A107C A113U, the “polymerase ribozyme fitness (log ratio)” value was ≤ -4.2. On to A28U C54U C87G G133A, for which the “polymerase ribozyme fitness (log ratio)” value was ≤ -4.2. As for A26U C54A G67U, the figure is ≤ -4.2; as for A28C G88C G117U A119U, ≤ -4.2. Then A26U G50A U61C A73U U82G C95G, with ≤ -4.2. Then A28C G42C C76G C79G G86C U90G A97G U145C, with ≤ -4.2. In the case of A28C C36U A39U U55A A66U C79U A91U C93A, the “polymerase ribozyme fitness (log ratio)” value was ≤ -4.2.

Regarding A28C C85A, the “polymerase ribozyme fitness (log ratio)” value was ≤ -4.2. As for A28C C87G C99A U148C, the figure is ≤ -4.2; as for C27A G67C C96U C123A G141C, ≤ -4.2. Then A28G G59U G68A C75A C85A G92U C93A G117A, with ≤ -4.2; and C27U A41G A47C U53A U78C C93A A110U, with ≤ -4.2; and C27A C35U A49C A66U G140C A150G, with ≤ -4.2.

With C27U C36U, the “polymerase ribozyme fitness (log ratio)” value is -2.88.

Consider A28U A30G C38U U56A A64U A107G, for which the “polymerase ribozyme fitness (log ratio)” value is ≤ -4.2.

Take A28U C54U C63U G71U C108U C114U A137U U139G A150G: the “polymerase ribozyme fitness (log ratio)” value was ≤ -4.2. Then A28G G83C, with -4.1; and C27G C76A C85U A91G C105G U135C, with ≤ -4.2; and C27A A49U C87A U134C G141A, with ≤ -4.2. Then C27G A49C C54U U78C U146A, with ≤ -4.2; and A26U U53A C75U C85U A137G, with ≤ -4.2.

With C27G G83A A89C, the “polymerase ribozyme fitness (log ratio)” value was -3.98.

A28C G46C G84A C85U: the “polymerase ribozyme fitness (log ratio)” value is ≤ -4.2. As for A28G A40U C69A C85U U102G G152C, the figure is ≤ -4.2; as for A28U G48C A52C G67A C69G C93A, ≤ -4.2. As for C27U C93U A106C G133U, the figure is ≤ -4.2. As for A28U A30C A41U A49C C85A G117C C118G C149A, the figure is ≤ -4.2; as for C27G G50C C75U G83C C96G, ≤ -4.2. Consider A28C C36A C93G A142C U145C, for which the “polymerase ribozyme fitness (log ratio)” value is ≤ -4.2. For the variant A28U C38U G50C C72U G80A C116U, the “polymerase ribozyme fitness (log ratio)” value is ≤ -4.2. Then C27A G62A C79G A91U A122U C131U, with ≤ -4.2.

Turning to A28G C36U C54A G59C G86A A119C, the “polymerase ribozyme fitness (log ratio)” value is ≤ -4.2. Then A26U G71U, with ≤ -4.2. Then A28C U56A C57A G68A C76A G88U G94A A138C, with ≤ -4.2; and A28U A39C A98G G143U U144G U146G, with ≤ -4.2. As for A28U G50A U55C U139G, the figure is ≤ -4.2; as for A28U C87U U134A, ≤ -4.2. Take C27U U78A C79G A91C C118G: the “polymerase ribozyme fitness (log ratio)” value is ≤ -4.2. With C27G A73G C85U U101G, the “polymerase ribozyme fitness (log ratio)” value is ≤ -4.2.

Turning to C27U C93A C131U G136A A138U A147U, the “polymerase ribozyme fitness (log ratio)” value was ≤ -4.2. Then A28U A30U U33G G58C G141U, with ≤ -4.2.

A28U G42C U44C C75G C96A A115G: the “polymerase ribozyme fitness (log ratio)” value was ≤ -4.2.

As to C27U C87A A119G G141A, the “polymerase ribozyme fitness (log ratio)” value is ≤ -4.2. Then C27G A28C C85G, with ≤ -4.2.

Turning to C27A, the “polymerase ribozyme fitness (log ratio)” value was -2.95.

With C27G, the “polymerase ribozyme fitness (log ratio)” value was -3.12. As for C27A C76A G83A G88A, the figure is ≤ -4.2; as for C27A U45C G59A G74U A97U C149U, ≤ -4.2; as for A26U U44A G58A C87U A107G C123G G141C, -3.93.

On to C27A C75A U101G, for which the “polymerase ribozyme fitness (log ratio)” value was ≤ -4.2.

Take C27U G59C G74A G80C G81A C125U: the “polymerase ribozyme fitness (log ratio)” value is ≤ -4.2. In the case of C27A A41C G81C G84U C123U, the “polymerase ribozyme fitness (log ratio)” value was ≤ -4.2. Then C27G G34U C96G A110G C116U C118G A138G, with ≤ -4.2; and A28U A47G C85A G117U U144G, with ≤ -4.2. As for C27U G46C A66C A89U C93A A115U, the figure is ≤ -4.2; as for C27U U53G C75U C95A G136U, ≤ -4.2. As for C27A C76G, the figure is ≤ -4.2; as for A28U A47G C96U C103G, ≤ -4.2; as for A28C U53A C93U, ≤ -4.2. As to A28G U33G A49C A52G C85A U139C, the “polymerase ribozyme fitness (log ratio)” value was ≤ -4.2. As for C27U U31C C76A G86U G128C G143C U148G G152A, the figure is ≤ -4.2; as for A28U A106G C116G, ≤ -4.2; as for C27G C76U G81A U146G, ≤ -4.2. Then C27A C57U G68U G92A C93U C95G, with ≤ -4.2; and A28C C57G G88C C116U A142G, with ≤ -4.2; and C27U G92U C114A U134C G136U A150G, with ≤ -4.2. As for C27A A52G G128U C129U C131G A147U, the figure is ≤ -4.2.

As for A28U A64G A137U A138C U144A C149A, the “polymerase ribozyme fitness (log ratio)” value is ≤ -4.2.

With C27U A47C, the “polymerase ribozyme fitness (log ratio)” value was -1.01. For the variant C27G C72U G83U A91U C93U, the “polymerase ribozyme fitness (log ratio)” value was ≤ -4.2. As for C27A A52U C87A A119C C149U, the figure is ≤ -4.2; as for C27G U77C G84A C85A G92A U104G, ≤ -4.2. Then A28U A64U C69U C85U U135A, with ≤ -4.2.
